Experimental data taken from patent US20080275078A1, “Pyrazolo[3,4-B] Pyridine Compounds and Their Use as Pde4 Inhibitors” (Glaxo Group Limited, priority 2004, published 2008).
Some entries share one result that the patent states for a list of compounds.

Molecular target: T1, PDE4B (human recombinant) (Homo sapiens, UniProt Q07343)
T1 construct: made in house; host or cells: Saccharomyces cerevisiae strain GL62 (PDE-deficient yeast), 100,000xg supernatant of cell lysate, as described in WO 94/20079
Assay: Inhibition of PDE4B activity (SPA or FP assay)
Assay type: biochemical
Settings: SPA or FP assay or similar; n=1 or average of 2 or more readings; range given for the listed group of Examples
Excerpt: Human recombinant PDE4B, in particular the 2B splice variant thereof (HSPDE4B2B), is disclosed in WO 94/20079 and also M. M. McLaughlin et al., “A low Km, rolipram-sensitive, cAMP-specific phosphodiesterase from human brain: cloning and expression of cDNA, biochemical characterisation of recombinant protein, and tissue distribution of mRNA”, J. Biol. Chem., 1993, 268, 6470-6476. For example, in Example 1 of WO 94/20079, human recombinant PDE4B is described as being expressed in the PDE-deficient yeast Saccharomyces cerevisiae strain GL62, e.g. after induction by addition of 150 uM CuSO4, and 100,000×g supernatant fractions of yeast cell lysates are described for use in the harvesting of PDE4B enzyme.
The ability of compounds to inhibit catalytic activity at PDE4B or 4D (human recombinant), PDE3 (from bovine aorta), PDE5 (human recombinant) or PDE6 (from bovine retina) can optionally be determined by Scintillation Proximity Assay (SPA) in a 96-well format. • Test compounds (as a solution in DMSO, preferably about 2 microlitre (ul) volume of DMSO solution) are preincubated at ambient temperature (room temperature, e.g. 19-23° C.) in Wallac Isoplates (code 1450-514) with PDE enzyme in 50 mM Tris-HCl buffer pH 7.5, 8.3 mM MgCl2, 1.7 mM EGTA, 0.05% (w/v) bovine serum albumin for 10-30 minutes (usually 30 minutes). The enzyme concentration is adjusted so that no more than 20% hydrolysis of the substrate defined below occurs in control wells without compound, during the incubation. For the PDE3, PDE4B and PDE4D assays, [5′,8-^3H]Adenosine 3′,5′-cyclic phosphate (Amersham Pharmacia Biotech, code TRK.559; or Amersham Biosciences UK Ltd, Pollards Wood, Chalfont St Giles, Buckinghamshire HP8 4SP, UK) is added to give 0.05 uCi per well and about 10 nM final concentration. For the PDE5 and PDE6 assays, [8-^3H]Guanosine 3′,5′-cyclic phosphate (Amersham Pharmacia Biotech, code TRK.392) is added to give 0.05 uCi per well and about 36 nM final concentration. Plates containing assay mixture, preferably approx. 100 ul volume of assay mixture, are mixed on an orbital shaker for 5 minutes and incubated at ambient temperature for 1 hour. Phosphodiesterase SPA beads (Amersham Pharmacia Biotech, code RPNQ 0150) are added (about 1 mg per well) to terminate the assay. Plates are sealed and shaken and allowed to stand at ambient temperature for 35 minutes to 1 hour (preferably 35 minutes) to allow the beads to settle. Bound radioactive product is measured using a WALLAC TRILUX 1450 Microbeta scintillation counter. For inhibition curves, 10 concentrations (e.g. 1.5 nM-30 uM) of each compound are assayed. Curves are analysed using ActivityBase and XLfit (ID Business Solutions Limited, 2 Ocean Court, Surrey Research Park, Guildford, Surrey GU2 7QB, United Kingdom) Results are expressed as pIC50 values.
The ability of compounds to inhibit catalytic activity at PDE4B (human recombinant) or PDE4D (human recombinant) can optionally be determined by IMAP Fluorescence Polarisation (FP) assay (IMAP Explorer kit, available from Molecular Devices Corporation, Sunnydale, Calif., USA; Molecular Devices code: R8062) in a 384-well format.
The IMAP FP assay is able to measure PDE activity in an homogenous, non-radioactive assay format. The FP assay uses the ability of immobilised trivalent metal cations, coated onto nanoparticles (tiny beads), to bind the phosphate group of Fl-AMP that is produced on the hydrolysis of fluorescein-labelled (Fl) cyclic adenosine mono-phosphate (Fl-cAMP) to the non-cyclic Fl-AMP form. […] Binding of Fl-AMP product to the beads (coated with the immobilised trivalent cations) slows the rotation of the bound Fl-AMP and leads to an increase in the fluorescence polarisation ratio of parallel to perpendicular light. Inhibition of the PDE reduces/inhibits this signal increase. […]

T1 sequence (Q07343 1-564 isoform Q07343-2): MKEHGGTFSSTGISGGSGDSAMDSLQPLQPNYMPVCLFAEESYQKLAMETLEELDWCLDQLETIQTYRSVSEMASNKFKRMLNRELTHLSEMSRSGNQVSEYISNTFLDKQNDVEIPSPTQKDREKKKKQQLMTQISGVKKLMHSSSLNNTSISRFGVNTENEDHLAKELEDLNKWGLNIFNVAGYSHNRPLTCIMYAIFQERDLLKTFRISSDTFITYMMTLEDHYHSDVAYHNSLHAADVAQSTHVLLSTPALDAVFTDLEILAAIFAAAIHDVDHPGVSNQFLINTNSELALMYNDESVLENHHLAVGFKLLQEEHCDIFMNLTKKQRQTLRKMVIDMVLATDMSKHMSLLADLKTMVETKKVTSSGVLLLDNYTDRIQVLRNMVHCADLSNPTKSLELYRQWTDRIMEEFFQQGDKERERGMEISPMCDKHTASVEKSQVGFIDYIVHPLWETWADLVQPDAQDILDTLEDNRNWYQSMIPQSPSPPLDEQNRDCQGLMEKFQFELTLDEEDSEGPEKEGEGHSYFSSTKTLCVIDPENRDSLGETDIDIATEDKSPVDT

| Compound | PDE4B pIC50 (±about 0.5) |
| --- | --- |
| CCn1ncc2c(NC3CCC(C(N)=O)CC3)c(C(=O)NCc3ccc(S(C)(=O)=O)cc3)cnc21 (mixture of isomers) [Example 48, 4-{[4-(aminocarbonyl)cyclohexyl]amino}-1-ethyl-N-{[4-(methylsulfonyl)phenyl]methyl}-1H-pyrazolo[3,4-b]pyridine-5-carboxamide] | 7.9 to 8.95 |
| CCn1ncc2c(NC3CCC(C(N)=O)CC3)c(C(=O)NCc3cccc(C)c3C)cnc21 (mixture of isomers) [Example 49, 4-{[4-(aminocarbonyl)cyclohexyl]amino}-N-[(2,3-dimethylphenyl)methyl]-1-ethyl-1H-pyrazolo[3,4-b]pyridine-5-carboxamide] | 7.9 to 8.95 |
| CCn1ncc2c(NC3CCC(C(N)=O)CC3)c(C(=O)NCc3ccccc3-c3ccccc3)cnc21 (mixture of isomers) [Example 50, 4-{[4-(aminocarbonyl)cyclohexyl]amino}-N-(2-biphenylylmethyl)-1-ethyl-1H-pyrazolo[3,4-b]pyridine-5-carboxamide] | 7.9 to 8.95 |
| CCn1ncc2c(NC3CCC(C(N)=O)CC3)c(C(=O)NCc3cccc(Cl)c3Cl)cnc21 (mixture of isomers) [Example 52, 4-{[4-(aminocarbonyl)cyclohexyl]amino}-N-[(2,3-dichlorophenyl)methyl]-1-ethyl-1H-pyrazolo[3,4-b]pyridine-5-carboxamide] | 7.9 to 8.95 |
| CCn1ncc2c(NC3CCC(C(N)=O)CC3)c(C(=O)NCc3ccccc3S(C)(=O)=O)cnc21 (mixture of isomers) [Example 53, 4-{[4-(aminocarbonyl)cyclohexyl]amino}-1-ethyl-N-{[2-(methylsulfonyl)phenyl]methyl}-1H-pyrazolo[3,4-b]pyridine-5-carboxamide] | 7.9 to 8.95 |
| CCn1ncc2c(NC3CCC(C(N)=O)CC3)c(C(=O)NCc3ccc(Cl)cc3)cnc21 (mixture of isomers) [Example 54, 4-{[4-(aminocarbonyl)cyclohexyl]amino}-N-[(4-chlorophenyl)methyl]-1-ethyl-1H-pyrazolo[3,4-b]pyridine-5-carboxamide] | 7.9 to 8.95 |
| CCn1ncc2c(NC3CCC(C(N)=O)CC3)c(C(=O)NCc3ccc(OC)cc3)cnc21 (mixture of isomers) [Example 55, 4-{[4-(aminocarbonyl)cyclohexyl]amino}-1-ethyl-N-{[4-(methyloxy)phenyl]methyl}-1H-pyrazolo[3,4-b]pyridine-5-carboxamide] | 7.9 to 8.95 |
| CCn1ncc2c(NC3CCC(C(N)=O)CC3)c(C(=O)NCc3ccc(-c4ccccc4)cc3)cnc21 (mixture of isomers) [Example 56, 4-{[4-(aminocarbonyl)cyclohexyl]amino}-N-(4-biphenylylmethyl)-1-ethyl-1H-pyrazolo[3,4-b]pyridine-5-carboxamide] | 7.9 to 8.95 |
| CCn1ncc2c(NC3CCC(C(N)=O)CC3)c(C(=O)NCc3ccc(O)cc3)cnc21 (mixture of isomers) [Example 57, 4-{[4-(aminocarbonyl)cyclohexyl]amino}-1-ethyl-N-[(4-hydroxyphenyl)methyl]-1H-pyrazolo[3,4-b]pyridine-5-carboxamide] | 7.9 to 8.95 |
| CCn1ncc2c(NC3CCC(C(N)=O)CC3)c(C(=O)NCc3ccccc3)cnc21 (mixture of isomers) [Example 58, 4-{[4-(aminocarbonyl)cyclohexyl]amino}-1-ethyl-N-(phenylmethyl)-1H-pyrazolo[3,4-b]pyridine-5-carboxamide] | 7.9 to 8.95 |
| CCn1ncc2c(NC3CCC(C(N)=O)CC3)c(C(=O)NCc3ccc(F)cc3F)cnc21 (mixture of isomers) [Example 59, 4-{[4-(aminocarbonyl)cyclohexyl]amino}-N-[(2,4-difluorophenyl)methyl]-1-ethyl-1H-pyrazolo[3,4-b]pyridine-5-carboxamide] | 7.9 to 8.95 |
| CCn1ncc2c(NC3CCC(C(N)=O)CC3)c(C(=O)NCc3ccc(OC(F)F)cc3)cnc21 (mixture of isomers) [Example 60, 4-{[4-(aminocarbonyl)cyclohexyl]amino}-N-({4-[(difluoromethyl)oxy]phenyl}methyl)-1-ethyl-1H-pyrazolo[3,4-b]pyridine-5-carboxamide] | 7.9 to 8.95 |
| CCn1ncc2c(NC3CCC(C(N)=O)CC3)c(C(=O)NCc3ccc4c(c3)CCO4)cnc21 (mixture of isomers) [Example 61, 4-{[4-(aminocarbonyl)cyclohexyl]amino}-N-(2,3-dihydro-1-benzofuran-5-ylmethyl)-1-ethyl-1H-pyrazolo[3,4-b]pyridine-5-carboxamide] | 7.9 to 8.95 |
| CCn1ncc2c(NC3CCC(C(N)=O)CC3)c(C(=O)NCc3cccc(-c4ccccc4)c3)cnc21 (mixture of isomers) [Example 62, 4-{[4-(aminocarbonyl)cyclohexyl]amino}-N-(3-biphenylylmethyl)-1-ethyl-1H-pyrazolo[3,4-b]pyridine-5-carboxamide] | 7.9 to 8.95 |
| CCn1ncc2c(NC3CCC(C(N)=O)CC3)c(C(=O)NCc3ccc(F)cc3)cnc21 (mixture of isomers) [Example 63, 4-{[4-(aminocarbonyl)cyclohexyl]amino}-1-ethyl-N-[(4-fluorophenyl)methyl]-1H-pyrazolo[3,4-b]pyridine-5-carboxamide] | 7.9 to 8.95 |
| CCn1ncc2c(NC3CCC(C(N)=O)CC3)c(C(=O)NCc3ccc(Cl)cc3C)cnc21 (mixture of isomers) [Example 64, 4-{[4-(aminocarbonyl)cyclohexyl]amino}-N-[(4-chloro-2-methylphenyl)methyl]-1-ethyl-1H-pyrazolo[3,4-b]pyridine-5-carboxamide] | 7.9 to 8.95 |
| CCn1ncc2c(NC3CCC(C(N)=O)CC3)c(C(=O)NCc3ccc(-c4ccc(Cl)cc4)cc3)cnc21 (mixture of isomers) [Example 65, 4-{[4-(aminocarbonyl)cyclohexyl]amino}-N-[(4′-chloro-4-biphenylyl)methyl]-1-ethyl-1H-pyrazolo[3,4-b]pyridine-5-carboxamide] | 7.9 to 8.95 |
| CCn1ncc2c(NC3CCC(C(N)=O)CC3)c(C(=O)NCc3c(CO)ccc(Cl)c3Cl)cnc21 (mixture of isomers) [Example 66, 4-{[4-(aminocarbonyl)cyclohexyl]amino}-N-{[2,3-dichloro-6-(hydroxymethyl)phenyl]methyl}-1-ethyl-1H-pyrazolo[3,4-b]pyridine-5-carboxamide] | 7.9 to 8.95 |
| CCn1ncc2c(NC3CCC(C(N)=O)CC3)c(C(=O)NCc3ccc(OC)c(OC)c3)cnc21 (mixture of isomers) [Example 68, 4-{[4-(aminocarbonyl)cyclohexyl]amino}-N-{[3,4-bis(methyloxy)phenyl]methyl}-1-ethyl-1H-pyrazolo[3,4-b]pyridine-5-carboxamide] | 7.9 to 8.95 |
| CCn1ncc2c(NC3CCN(C(N)=O)CC3)c(C(=O)NCc3ccc(C)c(C)c3)cnc21 [Example 2, 4-{[1-(aminocarbonyl)-4-piperidinyl]amino}-N-[(3,4-dimethylphenyl)methyl]-1-ethyl-1H-pyrazolo[3,4-b]pyridine-5-carboxamide] | 9.1 to 9.2 |
